# Source: the supplement of paper PMC3334620
# Whole data set: some 33,000 sequences, median “E-score (-0.5 to 0.5)” near -0.011, cut for the highest 2% near 0.28. The list shows a part of the results.
# Target: T1, Gcr1 (UniProt P07261)
# T1 sequence: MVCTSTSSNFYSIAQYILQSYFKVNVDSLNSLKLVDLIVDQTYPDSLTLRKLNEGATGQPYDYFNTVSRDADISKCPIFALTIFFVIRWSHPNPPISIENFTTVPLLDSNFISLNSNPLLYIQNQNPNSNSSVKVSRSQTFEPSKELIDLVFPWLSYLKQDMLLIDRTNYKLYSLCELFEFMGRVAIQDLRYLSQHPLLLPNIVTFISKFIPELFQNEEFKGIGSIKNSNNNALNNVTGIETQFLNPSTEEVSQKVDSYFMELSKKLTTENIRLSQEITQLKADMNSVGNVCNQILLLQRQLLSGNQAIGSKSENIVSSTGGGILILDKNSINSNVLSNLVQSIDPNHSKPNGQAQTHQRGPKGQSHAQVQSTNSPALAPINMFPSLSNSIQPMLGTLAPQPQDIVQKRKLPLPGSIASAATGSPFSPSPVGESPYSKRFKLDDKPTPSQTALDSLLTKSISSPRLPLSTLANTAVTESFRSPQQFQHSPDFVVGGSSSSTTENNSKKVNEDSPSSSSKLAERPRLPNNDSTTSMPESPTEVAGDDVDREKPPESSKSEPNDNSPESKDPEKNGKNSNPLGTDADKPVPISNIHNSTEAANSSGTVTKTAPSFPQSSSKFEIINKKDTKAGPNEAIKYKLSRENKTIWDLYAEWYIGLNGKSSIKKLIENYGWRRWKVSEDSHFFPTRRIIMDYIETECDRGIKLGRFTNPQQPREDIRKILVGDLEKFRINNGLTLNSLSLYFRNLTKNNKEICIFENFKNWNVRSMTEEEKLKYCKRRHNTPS
# Experiment: PBM E-score (8-mer binding enrichment) (E-score (-0.5 to 0.5)); higher = stronger / more preferred TF binding; most listed sequences are background and not binding sites
# Details: protein concentration: 100 nM; construct: GST-full length
# Procedure: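 Universal 'all 10-mer' protein binding microarrays (Agilent AMADID 015681) probed with GST-tagged S. cerevisiae TFs (full-length or DBD) made by in vitro transcription/translation (PURExpress), about 100-200 nM. Bound TF was detected with fluorescent anti-GST. Each ungapped 8-mer (which stands for itself and its reverse complement) is scored by the PBM enrichment score (E-score), a modified Wilcoxon-Mann-Whitney statistic from -0.5 to +0.5, computed with the Universal PBM Analysis Suite. Scale: above 0.35 generally sequence-specific binding.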
row,Sequence,PBM E-score
1,GGAAACTA,0.0975
2,ATTTCGCG,0.149
3,TACCTCTA,0.238
4,CTCCGAGA,-0.133
5,ACGACGGA,-0.111
6,CAGGGAGA,-0.223
7,AAGTTGGG,0.145
8,AACTAAGC,-0.0406
9,ACCAGGTG,0.0473
10,GAGACCCA,-0.114
11,GAAAATAA,0.0639
12,CATTGCTC,-0.193
13,CAGTCTTA,-0.215
14,GGCCCGCC,-0.0815
15,GTTTAGAA,0.15
16,GTTCATTA,0.0937
17,ATCTGAGC,0.124
18,AGAAGGAC,-0.231
19,CTGAGATC,-0.0584
20,ATTCGTTC,0.0978
21,GAAAACTC,-0.103
22,AGTTGAGC,0.0741
23,AGAAGGTA,0.152
24,AAGTCGAG,-0.13
25,CCACAGGG,0.0151

row,Sequence,PBM E-score
1,CTGGCGAA,-0.143
2,CGATGTCC,-0.0084
3,GGAGTTAA,-0.00026
4,ATCAGTGA,-0.0259
5,AAAATGCT,0.0483
6,CGTGGTCC,-0.00023
7,CCTATGAC,-0.0957
8,ATAAGAAG,0.381
9,ACAAGAGT,0.0659
10,ATGTTCAG,0.00413
11,CACTGTAA,-0.118
12,CTGACACA,-0.0736
13,AGGTTCTA,-0.00738
14,CAAGCAGC,0.324
15,ATCCACGA,0.0269
16,ATACGCCC,-0.126
17,GAGGGGGC,-0.229
18,CATTACTA,-0.187
19,TGCTTACA,-0.00713
20,ACGTATTG,-0.0581
21,GCACGGAC,0.041
22,ACGGTCTA,-0.192
23,GCTCCGGA,0.121
24,AGCAACAG,-0.0697
25,CGCGTCTA,0.137

row,Sequence,PBM E-score
1,TAAATCAA,0.146
2,GATCAGCA,-0.192
3,AGGATCGG,-0.104
4,AGACCCGC,-0.0645
5,ACGGATCG,-0.0656
6,TGAGCCCA,0.0335
7,ATGAGACG,-0.154
8,ACAGAGGA,0.101
9,ACCGGAGG,-0.09
10,AGACCCCA,0.205
11,CGATAGAA,0.122
12,CTTGGCGC,0.104
13,CATATTGG,0.117
14,AATAAAGC,-0.0355
15,CAGTTCGC,-0.0763
16,GAAATCAA,0.0443
17,GGAATCTA,0.357
18,CACTCCCC,-0.0729
19,CCATGGGG,0.0525
20,CGAGGTGA,0.00332
21,GAGAAGGC,0.0155
22,AAATAGTC,-0.0262
23,AGCCAATA,0.042
24,CACTCTGG,0.0408
25,CGTACTTA,-0.117

row,Sequence,PBM E-score
1,CACCACCC,-0.0857
2,CAACCGCA,-0.122
3,ATGATCTC,-0.0762
4,CGTGAGTA,-0.0697
5,AAGCTCGC,0.0111
6,GACCGCCA,-0.138
7,AACTTGGG,0.0372
8,CAACTAGG,0.0628
9,GATGCAGC,0.137
10,CAATTTCC,0.173
11,ATACATCC,-0.132
12,AACTTCCA,0.349
13,AATCCATT,0.198
14,AGGCCGAT,-0.0227
15,AGCGCTGG,0.0319
16,GCAGCAAC,0.227
17,TATGTCCA,-0.0573
18,ATGAACCC,0.0541
19,CGGGAGCA,-0.109
20,CACTTTGC,-0.13
21,GGTGCAGA,0.117
22,AATTGCCT,-0.0735
23,CCGTCTTC,-0.038
24,AGACCCAT,-0.152
25,ACGGAGAA,-0.0639

row,Sequence,PBM E-score
1,CACCAAAG,0.047
2,CTACCTGA,0.0704
3,CTCCCTGA,-0.0844
4,AAGCTAAC,0.137
5,ATATTGAG,-0.016
6,CAAATATC,0.0741
7,GTACCAGA,0.182
8,GATAGCTA,-0.0442
9,CGACTGAC,-0.135
10,ACGCTTCT,0.155
11,CCCGTACA,0.03
12,CAATCTTC,0.119
13,GTGCAGTA,-0.045
14,GAGCTGGA,-0.187
15,GCCAACAC,0.0149
16,ATCACTCC,-0.0513
17,CACGCCCC,0.149
18,ATACGCAG,0.281
19,TGGTTTAA,-0.0736
20,ATCTCGTG,0.0146
21,ATTCCCCC,-0.132
22,CTGGGCCC,0.0964
23,CCTAGTCG,-0.0382
24,CTACGAGC,-0.265
25,ACGCTGTC,-0.0601

row,Sequence,PBM E-score
1,AAGGCCTC,-0.217
2,ATATTTTC,0.0715
3,ACTCAAGA,-0.0735
4,CTGCACAC,0.0366
5,CGACGCTC,0.0463
6,GTTTGCAA,-0.00371
7,AGGTTGTC,-0.051
8,ATCTCTGC,-0.132
9,AGATAGCG,0.0872
10,AACGACCG,-0.184
11,AGTAAATA,-0.00533
12,AACAATGT,0.0351
13,AATTGGGA,0.148
14,AACCTGTG,0.00599
15,TAACGCTA,-0.0674
16,ATGGCTTG,-0.236
17,ATTTACTG,0.0775
18,ACACTAGT,0.0402
19,AATGCCCC,-0.00536
20,CCGCGCAA,-0.187
21,CGATTCGA,0.17
22,AATACTGC,-0.128
23,CAGCCGGA,0.128
24,TCATTCCA,-0.105
25,GTGCCGCA,-0.0128

row,Sequence,PBM E-score
1,CAATGGCG,-0.0196
2,TCGAGGCA,-0.167
3,AGCTCGAA,0.0664
4,AAGTATAA,-0.165
5,GCCCACAA,0.144
6,ACGGCACC,0.142
7,CATTCCTA,-0.0304
8,ACTCCTTA,0.0309
9,TCGAATCA,-0.0159
10,ACCTAAGT,-0.0904
11,ATTGTCAA,-0.00093
12,AACTAACC,0.0776
13,CGAGAGCC,-0.13
14,CAGTTACC,-0.0958
15,ACGGGACT,-0.172
16,GATAAATC,-0.0956
17,AAAAGCGC,-0.0384
18,GAAATGGC,-0.0112
19,CGTAGGGC,-0.108
20,AATTGACA,0.0157
21,AGCCTAGA,-0.127
22,ACGCCGCA,0.107
23,TCCCTCCA,-0.249
24,CAGCGGTA,-0.169
25,CATAGAAG,-0.0428

row,Sequence,PBM E-score
1,ATGTATTG,0.0843
2,AATTCCTG,0.139
3,CAGACAGC,-0.0536
4,GTGCGTAA,0.0201
5,ACAAGAGC,0.007
6,GTCTCATA,-0.093
7,CTTCGCAC,0.0523
8,TGGAACAA,-0.0703
9,AATGCGCA,-0.0656
10,AGTTACGG,0.0652
11,CATTTTTC,0.0497
12,AACAATAC,-0.124
13,ATTACAAA,-0.087
14,TCACCACA,-0.0822
15,CAGGTATC,0.311
16,ATACGAAA,0.182
17,CCGCCCGA,0.125
18,GACCCACA,0.101
19,AGATGTTC,0.0979
20,ACAATTCG,0.101
21,CGGCACAA,-0.139
22,AAATCCGC,-0.0711
23,AAATACGC,0.0151
24,AAGTCTTC,-0.2
25,ATTCAGCG,0.0196

row,Sequence,PBM E-score
1,CAAGCCAC,-0.124
2,AGACCCTA,-0.0538
3,GCCGTAAC,0.0121
4,CTGTTAAA,-0.0778
5,CGCTGCAC,0.109
6,GGTTTGTA,-0.12
7,ACTAATAC,0.137
8,CCATGTAC,0.0066
9,CGGCCTTC,-0.116
10,AAATCGAG,-0.0738
11,ACCAGGGG,0.0324
12,TATATCCA,0.116
13,AACCAGGG,-0.113
14,ATGCAACA,-0.0861
15,CACAGTCG,-0.221
16,ATATATAC,0.124
17,AGCTCCCG,-0.014
18,CATTCAAA,0.183
19,GCTCCGTA,0.153
